Test results as given in the supplement of paper PMC5919970.
Counter-ions that a name gives are not always drawn. The full ranking holds about 2,000 compounds; the median of “fractional viability relative to vehicle” is about 0.91, and the lowest 2% start at about 0.045. This is one part of the list.

System: TYKNU
Experiment: fractional viability relative to vehicle; TYKNU is a high-grade serous ovarian cancer line; higher = less growth inhibition
Settings: 72 h
Procedure, shortened: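 Drug treatment lasted 72 h, with cells grown at 37 °C in 5% CO2 in RPMI 1640 supplemented with 10% FBS. Beforehand, TYKNU control cells or their lentiCRISPRv2 knockout derivatives had been seeded at 500 cells per well into drug-stamped 384-well plates carrying a ~2100-compound library at 2 or 10 μM, in duplicate. Viability came from Cell Titer Glo luminescence, with averaged duplicate treatment wells normalised to duplicate control wells in the same plate position.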

[1] = 2uM, genotype: DNM1L knockout (sgDNM1L #1)
[2] = 2uM, genotype: sgCTRLA1 (non-targeting control)
[3] = 10uM, genotype: DNM1L knockout (sgDNM1L #1)
[4] = 10uM, genotype: sgCTRLA1 (non-targeting control)

Row | SMILES | fractional viability [1] | fractional viability [2] | fractional viability [3] | fractional viability [4]
1 | NCCc1c[nH]cn1 [Histamine 2HCl] | 1.04 | 0.99 | 0.758 | 0.948
2 | Nc1[nH]cnc2ncnc1-2 [Adenine HCl] | 0.977 | 0.959 | 1.01 | 1.22
3 | CC(=O)Nc1cccc(-n2c(=O)n(C3CC3)c(=O)c3c(Nc4ccc(I)cc4F)n(C)c(=O)c(C)c32)c1 | 0.253 | 0.199 | 0.201 | 0.182
4 | C[C@@H](NCCCc1cccc(C(F)(F)F)c1)c1cccc2ccccc12 [Cinacalcet HCl] | 0.861 | 1.12 | 0.521 | 0.856
5 | COc1cc2ncnc(Sc3nnc(C)s3)c2cc1OC | 0.747 | 0.866 | 0.0591 | 0.0581
6 | O=C(NC[C@H](O)CN1CCc2ccccc2C1)c1cc(NC2COC2)ncn1 | 0.764 | 0.899 | 0.604 | 0.662
7 | Cc1ccc(S(=O)(=O)c2ccc([N+](=O)[O-])o2)cc1 | 0.0323 | 0.012 | 0.0126 | 0.00867
8 | O=C1NC(=O)C(c2cnc3ccccn23)=C1c1cn2c3c(cc(F)cc13)CN(C(=O)N1CCCCC1)CC2 | 0.458 | 0.753 | 0.395 | 0.671
9 | CCCc1ncc(C[n+]2ccccc2C)c(N)n1 [Amprolium HCl] | 0.879 | 1.04 | 0.834 | 1.02
10 | O=C1NC(=O)/C(=C/c2ccc3nccc(-c4ccncc4)c3c2)S1 | 0.556 | 0.7 | 0.21 | 0.219
11 | O=C1NC(=O)C(c2ccccc2[N+](=O)[O-])=C1Nc1ccc(O)c(Cl)c1 | 1.09 | 1.22 | 0.762 | 1.13
12 | OC[C@H]1OC(O)[C@H](O)[C@@H](O)[C@@H]1O (some centres undefined) [Dextrose] | 0.922 | 1.05 | 0.941 | 0.998
13 | CC(C(=O)O)c1cccc(Oc2ccccc2)c1 (centres undefined) [Fenoprofen Calcium] | 1.27 | 1.08 | 0.966 | 0.961
14 | CC(C(=O)O)c1cccc(Oc2ccccc2)c1 (centres undefined) [Fenoprofen calcium hydrate] | 1.05 | 1.12 | 0.821 | 1.04
15 | COCCOc1nc(-c2ccc(Cl)c(Cl)c2)n(-c2ccc(NC(=O)CCl)cc2)n1 [MI-2 (MALT1 inhibitor)] | 0.786 | 1.05 | 0.792 | 0.806
16 | OC[C@@H](O)[C@@H](O)[C@H](O)[C@H](O)CO [D-Mannitol] | 0.913 | 1.29 | 0.841 | 1.14
17 | CC(=O)OCC(=O)NCCCOc1cccc(CN2CCCCC2)c1 [Roxatidine Acetate HCl] | 1.1 | 1.05 | 1.05 | 0.98
18 | CCn1cc(C(=O)O)c(=O)c2cc(F)c(N3CCNCC3)nc21 [Enoxacin] | 1.05 | 1.02 | 0.98 | 1.03
19 | C[C@H](NCc1ccc(OCc2cccc(F)c2)cc1)C(N)=O [Safinamide Mesylate] | 1.04 | 1.11 | 0.986 | 1.25

Row | SMILES | fractional viability [1] | fractional viability [2] | fractional viability [3] | fractional viability [4]
20 | C=C(C)[C@@H]1CC[C@]2(C(=O)O)CC[C@]3(C)[C@H](CC[C@@H]4[C@@]5(C)CC[C@H](O)C(C)(C)[C@@H]5CC[C@]43C)[C@@H]12 [Betulinic acid] | 0.89 | 1.13 | 0.691 | 0.997
21 | O=C(O)C1=C[C@@H](O)[C@@H](O)[C@H](O)C1 [Shikimic Acid] | 0.996 | 1.17 | 0.84 | 1.06
22 | C1N2CN3CN1CN(C2)C3 [Methenamine] | 1.05 | 1.28 | 0.752 | 1.09
23 | CC(C)OC(=O)C(C(=O)OC(C)C)=C1SC=CS1 [Malotilate] | 0.886 | 1.1 | 0.843 | 1.02
24 | c1ccc2c(c1)CCCC2C1=NCCN1 (centres undefined) [Tetrahydrozoline HCl] | 0.932 | 1.08 | 0.758 | 0.986
25 | CC[C@]12C=CCN3CC[C@@]4(c5cc([C@@]6(C(=O)OC)C[C@@H]7C[C@@H](C(C)(F)F)CN(Cc8c6[nH]c6ccccc86)C7)c(OC)cc5N(C)[C@H]4[C@@](O)(C(=O)OC)[C@@H]1OC(C)=O)[C@@H]32 [Vinflunine Tartrate] | 0.191 | 0.144 | 0.142 | 0.114
26 | O=C(COc1cccc2c(=O)[nH]ccc12)c1ccccc1 | 0.807 | 0.824 | 1.07 | 0.76
27 | CCNC(=O)[C@H]1O[C@@H](n2cnc3c(N)nc(NCCc4ccc(CCC(=O)O)cc4)nc32)[C@H](O)[C@@H]1O | 1.11 | 1.02 | 0.979 | 0.948
28 | CS(=O)(=O)c1ccc([C@@H](O)[C@@H](CF)NC(=O)C(Cl)Cl)cc1 [Florfenicol] | 0.939 | 1.16 | 0.558 | 0.355
29 | CCCCCOc1ccc(-c2ccc(-c3ccc(C(=O)N[C@H]4C[C@@H](O)[C@@H](O)NC(=O)[C@@H]5[C@@H](O)[C@@H](C)CN5C(=O)[C@H]([C@@H](C)O)NC(=O)[C@H]([C@H](O)[C@@H](O)c5ccc(O)cc5)NC(=O)[C@@H]5C[C@@H](O)CN5C(=O)[C@H]([C@@H](C)O)NC4=O)cc3)cc2)cc1 | 0.852 | 0.993 | 0.851 | 0.812
30 | CC(C)c1nc(N(C)S(C)(=O)=O)nc(-c2ccc(F)cc2)c1/C=C/[C@@H](O)C[C@@H](O)CC(=O)O [Rosuvastatin Calcium] | 1.02 | 1.03 | 0.767 | 0.792
31 | COCCCC/C(=N\OCCN)c1ccc(C(F)(F)F)cc1 [Fluvoxamine maleate] | 0.927 | 1.09 | 0.867 | 0.901
32 | COC(=O)[C@H](c1ccccc1Cl)N1CCc2sccc2C1 [Clopidogrel] | 0.992 | 1.1 | 0.88 | 0.88
33 | C[C@H](N[C@@H](CCc1ccccc1)C(=O)O)C(=O)N1CCC[C@H]1C(=O)O [Enalaprilat Dihydrate] | 0.968 | 1.08 | 0.906 | 0.897
34 | NC(=O)N1CCC(CC(=O)N2CCC([C@H]3c4ncc(Br)cc4CCc4cc(Cl)cc(Br)c43)CC2)CC1 [Lonafarnib] | 0.705 | 0.752 | 0.396 | 0.527
35 | CN(C)[C@@H]1C(O)=C(C(N)=O)C(=O)[C@@]2(O)C(O)=C3C(=O)c4c(O)cccc4[C@@](C)(O)[C@H]3C[C@@H]12 [Tetracycline HCl] | 1.13 | 1.11 | 0.879 | 0.82
36 | O=C(Nc1cc(C(F)(F)F)cc(C(F)(F)F)c1)c1cc(Cl)ccc1O | 0.239 | 0.232 | 0.122 | 0.126
37 | Oc1c(Br)cc(Br)c2cccnc12 [Broxyquinoline] | 0.644 | 1.08 | 0.159 | 0.24
38 | Nc1ccc2ncnc(NCCc3ccc(Oc4ccccc4)cc3)c2c1 | 0.604 | 0.444 | 0.596 | 0.43

Row | SMILES | fractional viability [1] | fractional viability [2] | fractional viability [3] | fractional viability [4]
39 | CNc1nc(-c2ccc3c(N)n[nH]c3c2)cc(N2C[C@@H](C(=O)NC3CCCCC3)CC[C@H]2C)n1 | 0.786 | 0.862 | 0.208 | 0.194
40 | CN1CCN(S(=O)(=O)c2ccc(-c3cnc(N)c(C(=O)Nc4cccnc4)n3)cc2)CC1 | 0.731 | 1.08 | 0.346 | 0.474
41 | COc1ccc(-c2coc3cc(O)ccc3c2=O)cc1 [Formononetin] | 0.887 | 1.05 | 0.84 | 1
42 | CS(=O)(=O)c1ccc(C(=O)Nc2ccc(Cl)c(-c3ccccn3)c2)c(Cl)c1 [Vismodegib (GDC-0449)] | 1.09 | 1.11 | 0.873 | 1.17
43 | COc1ccc(CC(C)NCC(O)c2ccc(O)c(NC=O)c2)cc1 (centres undefined) [Formoterol Hemifumarate] | 0.759 | 0.786 | 0.661 | 0.749
44 | Cc1ccc2c(c1)C(=O)C1(O)CCN(c3ccccc3)C1=N2 (single isomer, unassigned; (-)) [(-)-Blebbistatin] | 0.841 | 1.01 | 0.7 | 0.985
45 | CC(C)C[C@H](NC(=O)[C@H](Cc1ccccc1)NC(=O)c1cnccn1)B(O)O [Bortezomib (PS-341)] | 0.1 | 0.0838 | 0.101 | 0.0762
46 | CC1(C)CCC(c2ccc(Cl)cc2)=C(CN2CCN(c3ccc(C(=O)NS(=O)(=O)c4ccc(N[C@H](CCN5CCOCC5)CSc5ccccc5)c(S(=O)(=O)C(F)(F)F)c4)cc3)CC2)C1 [ABT-263 (Navitoclax)] | 0.877 | 0.977 | 0.296 | 0.73
47 | O=C(COc1ccc(C(=O)c2ccccc2)cc1)NC1CCN(Cc2ccccc2)CC1 [AdipoRon] | 0.774 | 0.949 | 0.575 | 0.596
48 | O=C(NOCC1CC1)c1ccc(F)c(F)c1Nc1ccc(I)cc1Cl | 0.693 | 0.805 | 0.247 | 0.247
49 | Nc1nc(F)nc2c1ncn2[C@@H]1O[C@H](COP(=O)(O)O)[C@@H](O)[C@@H]1O [Fludarabine Phosphate] | 0.26 | 0.307 | 0.217 | 0.167
50 | CCOC(=O)N1CCC(=C2c3ccc(Cl)cc3CCc3cccnc32)CC1 [Loratadine] | 1.23 | 1.1 | 0.839 | 1.08
51 | CC[C@H]1OC(=O)[C@H](C)[C@@H](O[C@H]2C[C@@](C)(OC)[C@@H](O)[C@H](C)O2)[C@H](C)[C@@H](O[C@@H]2O[C@H](C)C[C@H](N(C)C)[C@H]2O)[C@](C)(O)C[C@@H](C)C(=O)[C@H](C)[C@@H](O)[C@]1(C)O [Erythromycin] | 1.02 | 1.1 | 0.951 | 0.965
52 | c1ccc(CC2=NCCN2)cc1 [Tolazoline HCl] | 0.978 | 1.03 | 0.816 | 1.08
53 | CC(C)(Oc1ccc(CCNC(=O)c2ccc(Cl)cc2)cc1)C(=O)O [Bezafibrate] | 0.813 | 1.09 | 0.711 | 1.02
54 | O=C(O)CCc1nc(-c2ccccc2)c(-c2ccccc2)o1 [Oxaprozin] | 0.771 | 1.13 | 0.799 | 1.03
55 | O=C(c1cc(Cc2n[nH]c(=O)c3ccccc23)ccc1F)N1CCN(C(=O)C2CC2)CC1 | 0.967 | 1.06 | 0.727 | 1.02
56 | O=C(O)CCCc1c[nH]c2ccccc12 [3-Indolebutyric acid (IBA)] | 0.929 | 1.17 | 0.803 | 1.08
